# Experimental data from paper PMC10726135.
# Some of the results follow. At the low end of the ranking, values are background and their order means little. Measured with an extract: partners may take part in the binding.
# Biological target: T1, HNF4alpha2 (COS-7 nuclear extract) (UniProt P41235)
# T1 sequence: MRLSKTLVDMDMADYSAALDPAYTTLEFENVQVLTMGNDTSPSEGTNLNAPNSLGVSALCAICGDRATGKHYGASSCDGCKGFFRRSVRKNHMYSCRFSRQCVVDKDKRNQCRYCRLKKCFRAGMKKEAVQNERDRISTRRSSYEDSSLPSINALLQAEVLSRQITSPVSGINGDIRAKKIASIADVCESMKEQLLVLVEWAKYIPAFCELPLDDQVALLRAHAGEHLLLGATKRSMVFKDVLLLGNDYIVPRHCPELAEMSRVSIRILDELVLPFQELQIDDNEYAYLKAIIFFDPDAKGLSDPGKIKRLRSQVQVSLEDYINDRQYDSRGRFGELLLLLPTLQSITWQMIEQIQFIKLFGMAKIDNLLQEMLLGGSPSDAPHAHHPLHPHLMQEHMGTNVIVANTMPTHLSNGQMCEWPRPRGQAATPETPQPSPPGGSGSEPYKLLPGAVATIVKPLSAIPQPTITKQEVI
# Experiment: protein-binding microarray
# Settings: COS-7 nuclear extract on double-stranded Agilent 4x180k PBM; binding buffer, salt, pH and temperature not given; high values mean tight binding; double strand, one strand shown; sequences stand for … in …GCCTAGGGAGATTAGAGTATCGGTCGA
row,Sequence,binding signal (log2 normalized intensity)
1,ATAGCGCCCACACTGCCCATCCCCACTGAA,3.46
2,TAAACAGAAGAAAGGGGCTAGGGCAAAGAT,-1.06
3,GGCTGGTTTAACTGACCCAGGGAGAAAGGT,-1.1
4,GATTGTCACAAGACTGTTATCACAGCTGGC,-0.883
5,CAAAGACTAATGCATTCCCAGCAAGTGAAG,-1.11
6,GTCTAAGCTAGTCATAGCTGGGTTTCCAGC,-0.824
7,TTATCAGCTGCTAAGTCTTTCCACACAGCC,-1.14
8,TGCTTATTTCCCATCAAGGATCAAGGACCT,-0.85
9,GAGTTCAAAGGATACAGATAAATAAATCAA,-1.07
10,GATCCTCATTTCCCCATTCCTAAGTTCCAA,1.72
11,TGGAGAATGGATCTAAGGACAAAGTCCAAG,6.12
12,AAAATCACACTGGGAATTGGGATGGCAGCT,-1.15
13,GTTGAGGTAGAGGGACACTGATAACATGAG,-0.141
14,CCAGTTTCTCAACAGACCCCTGAATTGGTC,1.85
15,CAATGTGCTCATCCATAAAATGGGGTAATG,0.755
16,AAAGAGAGAGTTAGTTCTGCAAACACCCCT,1.19
17,TCTCTGAGCAGTGAATGTTGAAGTCCCACG,1.02
18,TAACCCCCTTGTCTTCCTCAAATTACAAAA,2.36
19,CCCAGATGGGCTGGCAGAGGGGATCAAGTG,-1.1
20,GAAAACCTTGTCTAAGCCCTTATCAAAAAG,-1.1
21,GAGGGCAACCTTTGAACTGGGTCTTAATAA,3.53
22,TGACACCTAGCTGAGCAGGGGACTAAGAGC,-1.06
23,TGACTGATTCCTGCTGAGAGAGCAGGTTGA,0.56
24,CTGTCCCTCAGTGTGGGACTTTGGTCTGCT,4.15
25,GCAGAAAACGCAATTGCCCTACAGCTCCTG,-1.11

row,Sequence,binding signal (log2 normalized intensity)
1,ATTCCAAGAAGGCAGACTCAAGATAGAGGG,-1.09
2,AGCTGTTATCTTGGTGCCTGCAGAGCCTCC,-0.0827
3,ACCAAGTACCGCAAACAAGGTGGCTTGAAA,-1.16
4,TTGGAGAAAAAAAACCATTGCAAATTGGAT,-0.388
5,GGCCAAAGTACGCTCCACCCCTCAGCCTTT,3.58
6,GCGGCTCCGGGAGCTGGCGGCGCGGCCGGA,-0.587
7,CCGGAGAGGCTTATTCCGTACAAGGATTCA,-1.13
8,CAAGCCTGCCGAGGTGTCCTGTAAATAGTG,0.465
9,ACGCTGTTGTCTGTGACTGGGGTCAAACTC,3.88
10,TTGCAATAAAAGATTGCATCTGTTTTTATT,-1.05
11,AGCAGGCCTCGGGCCTGCGAGGTTACAGGG,0.483
12,CTAACATTCAGAGGTCAGGGGAGAGAGGCA,-1.09
13,CCCAAAGGCATGAATAGAATGCAACCAAGT,-1.21
14,ATCCGCTAATGACACCAGGGAACACACCAT,-0.7
15,GAGGTGACCCTTGCACTCATACTTGAAGAC,3.57
16,CCCTCAGGGATCTTTGCACTTGATGTTCCC,1.67
17,TCAGGTAAAGATATGGAACACTTTCAGAGA,-0.411
18,TCCAGGAGGGGAGGAGGGTCAAAACTTCAG,-1.16
19,AAGGCCTTAAAGTGTAAATATTTGAGGACA,0.773
20,CCAAACTGGTTTCTCCGCTCGGGGAGGTGC,-1.12
21,TCTGACCCATTCCTTCTCACCGGGTGGAGC,0.981
22,ATCATCTACTATGTGCCAGACACTGCTCTA,-1
23,CCATTGTATGAGGGTGAAGTTTGGCAATTA,0.209
24,TTAGTTCTTTGTAGGAAGGCTTTGAAGTCT,1.31
25,TCCAGACTTTGTACAAGGGCACTAGCTCTT,-0.263

row,Sequence,binding signal (log2 normalized intensity)
1,ATTCCTACTAATTTTGTTTCCTAGTTCAAA,0.0056
2,GAGGAGGCCTTTCCTGACCCCTCCTCCCCC,5.59
3,GTGGATATTGGGAGGCCCATTGTGCTGGGG,0.343
4,GCCAGGCAGGACAGTTTTGTGTGTTTAATG,1.37
5,AGCCCTGTTGACATCTTGATTTAGCCCAGT,0.816
6,TTTGATGGACATTGCTGGTGGTGGTAGATC,1.34
7,CTCATTCTTGGAATGCATTGCAAGTCGTAT,1.17
8,CCTGTTAAAAACACGAGCTATTGCGAGGTT,-0.496
9,TTTTCTATTTCCACTGAGGTCAAGATAAGA,1.43
10,TGGAATTTGAACCTACACCTATGTGGTCAA,2.3
11,GCTCATTCCCTAGGGCTCGGCATTCAGACA,-1.07
12,TAACCTGCTCTCTCATGCCCTTTGCCTCCC,4.41
13,TCTTTCCACACAGCCTGTCAAAGGGAGAAA,-0.976
14,GAAGGTGCTCAGAAAATTGATTCTAATCTC,-1.06
15,AATGCACCCAGAACCCCCAGGTCACCCACA,4.82
16,ACTGGGGACTAGTAGAGTGGGGAGGTAGGG,-1.27
17,AGGTCACATAGCAGGCATACCAGGCAGAGG,-1.15
18,AAAAGCAGGCAACCAAGGGTACACACCGTT,-1.02
19,CACCTTCTACACAGCACCCCTTGCAAATAA,2.14
20,AATGCCAGGACCCTGTGGGACTGGTTTCAA,-1.12
21,CTGGACTTTCCTTTGTTGGGAGACTTTTTA,1.63
22,GTCTCCAGCCCCCAGAGGTCACACTGATAC,3.45
23,TCCAAAGCCTCATCTGAGATAAGGCAAGTC,-1.27
